# Measurements from the supplement of paper PMC12217912.
# Some of the results follow. The full chains were built here from the parent and the listed change. Values near 0.05 are background.
# B1: TEV protease; numbered along this chain (parent)
# chain: MGESLFKGPRDYNPISSSICHLTNESDGHTTSLYGIGFGPFIITNKHLFRRNNGTLVVQSLHGVFKVKDTTTLQQHLVDGRDMIIIRMPKDFPPFPQKLKFREPQREERICLVTTNFQTKSMSSMVSDTSCTFPSGDGIFWKHWIQTKDGQCGSPLVSTRDGFIVGIHSASNFTNTNNYFTSVPKNFMELLTNQEAQQWVSGWRLNADSVLWGGHKVFMVKPEEPFQPVKEATQL
# Variants of: B1
# Assay: raw area under fraction-flipped curve 0-4 h after induction (AUC4h, not background-subtracted), DNA-recorder readout of cleavage of the substrate (dimensionless); higher = more cleavage of the substrate by the protease variant
# Conditions: temperature: 34 °C; time window: 0-4 h after rhamnose induction
# Protocol: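 In vivo DNA recorder in E. coli TOP10(DE3) ΔrhaA at 34 °C. Each TEVp single-site mutant (parent TEVp 0) is paired with a single-site variant of the 7-mer TEVs (canonical ENLYFQ|S). The substrate sits between flexible linkers in a Bxb1-sfGFP-TEVs-SsrA fusion, so cleavage stabilises Bxb1 and speeds flipping of a recombination array, read by NGS. The value is the raw area under the fraction-flipped curve over 0-4 h after rhamnose induction (AUC4h), with ≥20 reads per time point. It is not background-subtracted; inactive controls average about 0.047.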
# 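Note: Bxb1 expression induced with 0.2% (w/v) L-rhamnose at OD600 near 0.5, cultures sampled hourly, flipped fraction per protease–substrate barcode pair counted by paired-end Illumina sequencing.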
Variant,area with substrate ENLYFCS,area with substrate ENLYFDS,area with substrate ENLYFES,area with substrate ENLYFFS,area with substrate ENLYFGS,area with substrate ENLYFIS,area with substrate ENLYFKS,area with substrate ENLYFLS,area with substrate ENLYFMS,area with substrate ENLYFNS,area with substrate ENLYFPS,area with substrate ENLYFSS,area with substrate ENLYFTS,area with substrate ENLYFWS,area with substrate ENLYFYS,area with substrate ENLYFHS,area with substrate ENLYFRS,area with substrate ENLYFVS
MGESLFKGPRDYNPISSSICHLTNESDGHTTSLYGIGFGPFIITNKHLFRRNNGTLVVQSLHGVFKVKDTTTLQQHLVDGRDMIIIRMPKDFPPFPQKLKFREPQREERICLVTTNFQTKSMSSMVSDTSCTFPSGDGIFWKHWIQTKDGQCGSPLVSTRDGFIVGIHSASNFTNTNNYFMSVPKNFMELLTNQEAQQWVSGWRLNADSVLWGGHKVFMVKPEEPFQPVKEATQL [T181M],0.0688,0.056,0.064,0.0695,0.0615,0.0433,0.0556,0.0834,0.0606,0.0584,0.0463,0.0511,0.0508,0.062,0.0648,,,
MGESLFKGPRDYNPISSSICHLTNESDGHTTSLYGIGFGPFIITNKHLFRRNNGTLVVQSLHGVFKVKDTTTLQQHLVDGRDMIIIRMPKDFPPFPQKLKFREPQREERICLVTTNFQTKSMSSMVSDTSCTFPSGDGIFWKHWIQTKDGQCGSPLASTRDGFIVGIHSASNFTNTNNYFTSVPKNFMELLTNQEAQQWVSGWRLNADSVLWGGHKVFMVKPEEPFQPVKEATQL [V157A],0.103,0.0588,0.0524,0.0694,0.0665,0.067,0.0644,0.0467,0.0604,0.0605,0.0708,0.0542,,0.0767,0.051,0.0535,,
MGESLFKGPRDYNPISSSICHLTNESDGHTTSLYGIGFGPFIITNKHLFRRNNGTLVVQSLHGVFKVKDTTTLQQHLVDGRDMIIIRMPKDFPPFPQKLKFREPQREERICLVTTNFQTKSMSSMVSDTSCTFPSGDGIFWKHWIQTKDGQCGSPLVSTRDGFIVGIHSASNFTNYNNYFTSVPKNFMELLTNQEAQQWVSGWRLNADSVLWGGHKVFMVKPEEPFQPVKEATQL [T176Y],0.0685,,0.0517,0.0709,0.0609,0.0541,,0.0592,0.0579,0.0582,0.06,0.051,0.0538,0.0618,,,0.0524,
MGESLFKGPRDYNPISSSICHLTNESDGHTTSLYGIGFGPFIITNKHLFRRNNGTLVVQSLHGVFKVKDTTTLQQHLVDGRDMIIIRMPKDFPPFPQKLKFREPQREERICLVTTNFQTKSMSSMVSDTSCTFPSGDGIFWKHWIQTKDGQCGSPLVSTRDGFIVGIHSASNFTNTNNYFTSVPKNFMELLTNQEAQQWVKGWRLNADSVLWGGHKVFMVKPEEPFQPVKEATQL [S201K],0.0537,,0.0298,,,0.0662,,,,,0.0654,,0.101,,,,,
MGESLFKGPRDYNPISSSICHLTNESDGHTTSLYGIGFGPFIITNKHLFRRNNGTLVVQSLHGVFKVKDTTTLQQHLVDGRDMIIIRMPKDFPPFPQKLKFREPQREERICLVTTNFQTKSMSSMVSDTSCTEPSGDGIFWKHWIQTKDGQCGSPLVSTRDGFIVGIHSASNFTNTNNYFTSVPKNFMELLTNQEAQQWVSGWRLNADSVLWGGHKVFMVKPEEPFQPVKEATQL [F133E],0.0413,0.063,0.0614,0.0631,,0.0393,0.0675,,0.0605,0.0734,,0.079,0.044,0.0578,0.0591,0.0646,0.0584,0.0654
MGESLFKGPRDYNPISSSICHLTNESDGHTTSLYGIGFGPFIITNKHLFRRNNGTLVVQSLHGVFKVKDTTTLQQHLVDGRDMIIIRMPKDFPPFPQKLKFREPQREERICLVTTNFQTKSMSSMVSDTSCTNPSGDGIFWKHWIQTKDGQCGSPLVSTRDGFIVGIHSASNFTNTNNYFTSVPKNFMELLTNQEAQQWVSGWRLNADSVLWGGHKVFMVKPEEPFQPVKEATQL [F133N],0.0544,,,0.0702,0.0698,0.0563,,0.0764,0.0773,0.058,0.0707,,0.0601,,,,,
MGESLFKGPRDYNPISSSICHLTNESDGHTTSLYGIGFGPFIITNKHLFRRNNGTLVVQSLHGVFKVKDTTTLQQHLVDGRDMIIIRMPKDFPPFPQKLKFREPQREERICLVTTNFQTKSMSSMVSDTSCTFPSGDGIFWKHWIQTKDGQCGSPLVSTRDGFIVGIHSASNFTNTNNYFTSVPKMFMELLTNQEAQQWVSGWRLNADSVLWGGHKVFMVKPEEPFQPVKEATQL [N186M],0.0584,0.0752,0.0682,0.0764,,0.0536,0.0763,,0.0735,0.0608,0.0492,0.0483,0.0528,0.0695,,,,0.0843
MGESLFKGPRDYNPISSSICHLTNESDGHTTSLYGIGFGPFIITNKHLFRRNNGTLVVQSLHGVFKVKDTTTLQQHLVDGRDMIIIRMPKDFPPFPQKLKFREPQREERICLVTTNFQTKSMSSMVSDTSCTFPSGDGIFWKHWIQTKDGQCGSPLVSTRDGFIVGIHSASNFTNTNNYFTSVPKLFMELLTNQEAQQWVSGWRLNADSVLWGGHKVFMVKPEEPFQPVKEATQL [N186L],0.0598,0.0461,0.0482,0.0472,,0.0599,0.0627,,0.0675,0.0583,0.0586,0.063,0.0588,0.0623,0.0585,0.0762,0.061,0.11
MGESLFKGPRDYNPISSSICHLTNESDGHTTSLYGIGFGPFIITNKHLFRRNNGTLVVQSLHGVFKVKDTTTLQQHLVDGRDMIIIRMPKDFPPFPQKLKFREPQREERICLVTTNFQTKSMSSMVSDTSCTFPSGDGIFWKHWIQTKDGQCGSPLVSTRDGVIVGIHSASNFTNTNNYFTSVPKNFMELLTNQEAQQWVSGWRLNADSVLWGGHKVFMVKPEEPFQPVKEATQL [F163V],0.0423,0.054,,0.0315,0.0643,0.0593,,0.0551,0.0616,0.0931,,0.0612,,0.0658,,0.07,0.0765,
MGESLFKGPRDYNPISSSICHLTNESDGHTTSLYGIGFGPFIITNKHLFRRNNGTLVVQSLHGVFKVKDTTTLQQHLVDGRDMIIIRMPKDFPPFPQKLKFREPQREERICLVTTNFQTKSMSSMVSDTSCTFPSGDGIFWKHWIQTKDGQCGSPLVSTRDGRIVGIHSASNFTNTNNYFTSVPKNFMELLTNQEAQQWVSGWRLNADSVLWGGHKVFMVKPEEPFQPVKEATQL [F163R],0.0685,0.0447,,0.14,,0.0512,0.062,0.0557,0.0737,,0.0684,0.0645,0.0745,,,,0.0374,
MGESLFKGPRDYNPISSSICHLTNESDGHTTSLYGIGFGPFIITNKHLFRRNNGTLVVQSLHGVFKVKDTTTLQQHLVDGRDMIIIRMPKDFPPFPQKLKFREPQREERICLVTTNFQTKSMSSMVSDTSCTFPSGDGIFWKHWIQTKDGQCGSPLVSTRDGFIVGIHSASNFTNTNNYFTSVPKNFMELLTNREAQQWVSGWRLNADSVLWGGHKVFMVKPEEPFQPVKEATQL [Q194R],0.0332,,0.0622,0.0697,0.0651,0.0528,0.0643,,0.0599,0.0873,0.0587,,0.0583,,0.0515,0.0591,,
MGESLFKGPRDYNPISSSICHLTNESDGHTTSLYGIGFGPFIITNKHLFRRNNGTLVVQSLHGVFKVKDTTTLQQHLVDGRDMIIIRMPKDFPPFPQKLKFREPQREERICLVTTNFQTKSMSSMVSDTSCTFPSGDGIFWKHWIQTKDGQCGSPLVSTRKGFIVGIHSASNFTNTNNYFTSVPKNFMELLTNQEAQQWVSGWRLNADSVLWGGHKVFMVKPEEPFQPVKEATQL [D161K],0.0465,0.0516,0.0745,0.0691,0.0435,0.0533,,0.0414,0.0566,0.0536,0.0582,0.0543,0.0529,0.0575,0.0389,,0.059,0.0514
MGESLFKGPRDYNPISSSICHLTNESDGHTTSLYGIGFGPFIITNKHLFRRNNGTLVVQSLHGVFKVKDTTTLQQHLVDGRDMIIIRMPKDFPPFPQKLKFREPQREERICLVTTNFQTKSMSSMVSDTSCTFPSGDGIFWKHWIQTKDGQCGSPLVSTRDGFIVGIHSASNFTNTNNYFTSVPKNFMELLTNQEAQIWVSGWRLNADSVLWGGHKVFMVKPEEPFQPVKEATQL [Q198I],0.0757,0.0619,0.0731,0.0824,,0.0585,0.0535,0.0742,0.0654,0.053,0.058,,0.0631,0.0598,0.0469,,0.0562,0.0496
MGESLFKGPRDYNPISSSICHLTNESDGHTTSLYGIGFGPFIITNKHLFRRNNGTLVVQSLHGVFKVKDTTTLQQHLVDGRDMIIIRMPKDFPPFPQKLKFREPQREERICLVTTNFQTKSMSSMVSDTSCTFPSGDGIFWKHWIQTKDGQCGSPLVSTRDGFIVGIHSASNFTFTNNYFTSVPKNFMELLTNQEAQQWVSGWRLNADSVLWGGHKVFMVKPEEPFQPVKEATQL [N175F],0.0564,0.0353,0.083,,0.0802,0.0499,,0.0588,0.0718,0.0617,0.0544,0.0596,0.0588,0.0329,,0.0717,0.0618,
MGESLFKGPRDYNPISSSICHLTNESDGHTTSLYGIGFGPFIITNKHLFRRNNGTLVVQSLHGVFKVKDTTTLQQHLVDGRDMIIIRMPKDFPPFPQKLKFREPQREERICLVTTNFQTKSMSSMVSDTSCTFPSGDGIFWSHWIQTKDGQCGSPLVSTRDGFIVGIHSASNFTNTNNYFTSVPKNFMELLTNQEAQQWVSGWRLNADSVLWGGHKVFMVKPEEPFQPVKEATQL [K142S],0.0612,,0.0573,0.0768,,0.0591,0.0575,,,0.0685,0.0601,0.073,0.0614,0.0676,0.0607,,0.067,0.0556
MGESLFKGPRDYNPISSSICHLTNESDGHTTSLYGIGFGPFIITNKHLFRRNNGTLVVQSLHGVFKVKDTTTLQQHLVDGRDMIIIRMPKDFPPFPQKLKFREPQREERICLVTTNFQTKSMSSMVSDTSCTFPSGDGIFWKRWIQTKDGQCGSPLVSTRDGFIVGIHSASNFTNTNNYFTSVPKNFMELLTNQEAQQWVSGWRLNADSVLWGGHKVFMVKPEEPFQPVKEATQL [H143R],0.0619,,0.0717,0.0566,0.0622,0.0586,0.0494,0.0507,0.06,0.0557,0.0578,0.0598,,0.0601,0.0608,0.0401,0.0549,0.026
MGESLFKGPRDYNPISSSICHLTNESDGHTTSLYGIGFGPFIITNKHLFRRNNGTLVVQSLHGVFKVKDTTTLQQHLVDGRDMIIIRMPKDFPPFPQKLKFREPQREERICLVTTNFQTKSMSSMVSDTSCTFPSGDGAFWKHWIQTKDGQCGSPLVSTRDGFIVGIHSASNFTNTNNYFTSVPKNFMELLTNQEAQQWVSGWRLNADSVLWGGHKVFMVKPEEPFQPVKEATQL [I139A],0.075,0.0682,0.0661,,0.0545,0.052,0.059,,0.073,0.0634,0.0533,0.0403,0.0488,0.0427,0.0636,,0.0539,0.0562
MGESLFKGPRDYNPISSSICHLTNESDGHTTSLYGIGFGPFIITNKHLFRRNNGTLVVQSLHGVFKVKDTTTLQQHLVDGRDMIIIRMPKDFPPFPQKLKFREPQREERICLVTTNFQTKSMSSMVSDTSCTFPSGDGIFWKHWIQTKDGQCGSPLVSTRDGFIVGIHSASNFTNTNNYFTSVPTNFMELLTNQEAQQWVSGWRLNADSVLWGGHKVFMVKPEEPFQPVKEATQL [K185T],0.0405,0.0684,0.0536,0.0635,,0.0601,0.0651,0.0422,0.0527,,0.0604,,0.0605,0.0604,0.0661,0.046,,
